Results: the supplement of paper PMC10126150
Values marked as one replicate rest on one cluster of the flow cell; about a third of the high ones do not repeat.

The sequences below were run on ATP (assay: switch fluorescence ratio, 500 uM ATP over buffer (Cy3 cluster intensity, sum of 5 cycles each) (fold (ratio)); higher = stronger signal-on switching upon ATP binding; sequences stand for … in TCGTCGGCAGCGTCAGATGTGTATAAGAGACAGTTTTTTTTTTTTTTTTTTTTTTTTT…TC). Conditions: aptamer strand: ATP DNA aptamer (quencher-CACCTGGGGGAGTATTGCGGAGGAAGG + anchor), 100 nM annealed; ATP concentration: 500 uM; one replicate.
Outline: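 Cy3-labelled switching-strand clusters on a modified Illumina MiSeq flow-cell were annealed to 100 nM quencher-labelled ATP aptamer and imaged first in selection buffer, then after 15 min with 500 uM ATP at 22 °C. NaOH stripping and re-annealing separated each of five buffer/ATP cycles, and clusters outside 100-1000 RFU were excluded. The fluorescence ratio sums target-cycle Cy3 intensity over buffer-cycle Cy3 intensity per cluster and averages it per switch-domain sequence.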
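Note: ATP exposure 15 min at 22 °C before imaging.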

Sequence	switch fluorescence ratio
GGCTACGGAG	0.974
GGCTATAGCT	1.03
GGCTATATAT	1.02
GGCTCACGAC	1.06
GGCTCCGGTA	1.36
GGCTCGCGCT	0.974
GGCTCTGACT	0.993
GGCTCTGAGT	1.03
GGCTCTTCAT	0.983
GGCTGAAATG	0.998
GGCTGAACCC	1.01
GGCTGACAAG	1.02
GGCTGACTTG	0.943
GGCTGAGCCC	0.953
GGCTGCAATA	5.09
GGCTGCATTG	0.987
GGCTGCTGGA	1.1
GGCTGGACTG	0.999
GGCTGTATCA	1.03
GGCTGTTTGT	0.929
GGCTTAGGAT	0.954
GGCTTCTACA	1.01
GGCTTGAG	0.981
GGCTTGCCCA	1.01
GGCTTGTTGT	1

Sequence	switch fluorescence ratio
GGCTTGTTTT	0.985
GGCTTTCGAT	0.955
GGCTTTTATT	0.999
GGCTTTTTAT	1.81
GGGAAACCAG	0.993
GGGAACCGA	0.979
GGGAACCTCG	1
GGGAACGCAC	1.83
GGGAACTTAG	1.02
GGGAAGACGG	1
GGGAAGCAGA	0.984
GGGAAGTATT	1.02
GGGAATACCT	1.21
GGGAATGCGT	1.02
GGGAATTGGA	0.953
GGGACACCGA	1.05
GGGACCCCG	1.04
GGGACGTCTA	1.03
GGGACTAAGT	1
GGGAGAAGCT	1.06
GGGAGAGCAG	0.988
GGGAGCGGGA	1.02
GGGAGGCGGA	1.01
GGGAGGGTCC	1.01
GGGAGTCTG	0.995

Sequence	switch fluorescence ratio
GGGAGTGCGT	0.942
GGGAGTTATG	0.982
GGGAGTTCAC	0.933
GGGATAAAAG	0.994
GGGATACACT	1.09
GGGATACCGG	1.04
GGGATCACCG	0.988
GGGATCTCGC	1.03
GGGATCTTTG	0.998
GGGATGCAAG	1.04
GGGATTCAGG	1.46
GGGATTCATG	0.966
GGGCAAATCG	1.04
GGGCAAGATT	1.04
GGGCAGGAAC	0.979
GGGCAGTACT	1.74
GGGCAGTTCA	1.03
GGGCATAAAT	1
GGGCATCATA	0.995
GGGCATCGCG	0.994
GGGCATTGCA	1.01
GGGCCACCTC	1.03
GGGCCTAGGC	0.963
GGGCCTCTGA	1.03
GGGCCTGCGG	0.954

Sequence	switch fluorescence ratio
GGGCGAAGGT	0.977
GGGCGCTATA	1.32
GGGCGGGAAA	1.03
GGGCGGGAGC	1.02
GGGCGGTGAA	1.08
GGGCGTAGAA	1.01
GGGCGTTGTA	1.02
GGGCTAAAAT	1.01
GGGCTGTA	0.995
GGGCTGTGCG	1.03
GGGCTGTTCA	0.972
GGGCTTAAAC	0.998
GGGCTTGCGA	1.04
GGGCTTTCAT	1.01
GGGGAACAGC	0.975
GGGGAACCCT	0.981
GGGGACAAGA	1.02
GGGGACGTGC	1
GGGGAGACAA	1.12
GGGGAGCGCA	1.01
GGGGAGGTGA	1.07
GGGGATTGGC	0.893
GGGGCACTC	1.04
GGGGCATCGG	1.02
GGGGCATTAC	3.45
